Test results published in PubChem BioAssay AID624202 (National Center for Advancing Translational Sciences (NCATS), 2012).
Hit rate of the full screen: of about 380,000 compounds, about 4,000 (1.1%) were called active. Inconclusive results, whose numbers are uncertain, are shown with a selection of clear calls. The call rests on the fitted dose curve; in most records, active means well fitted activation curve with a large enough effect; inconclusive means small, poorly fitted or top-dose-only effect; inactive means no such curve, though single readings can be large or run the other way. A potency beside an inconclusive call is a rough fit, not a confirmed value.

experiment: qHTS Assay to Identify Small Molecule Activators of BRCA1 Expression; details: MCF7-BRCA1-FFLuc reporter, luminescence, 48 h; series mostly up to 46.1 µM; further: nearly all actives have a fitted effect of over 80% in size
Outline: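 Luminescence from a BRCA1-driven firefly luciferase in MCF7 cells was the read-out, taken 15 min after substrate addition following 48 h compound exposure at 37 °C. Data were normalized to a 10 microM genistein control and DMSO vehicle.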
Potency means the concentration at half of the fitted maximal effect; tags describe the fitted curve by direction and shape.

| SMILES | Potency |
| --- | --- |
| CC(=O)N(CCc1ccccc1C)Cc1cc2ccc(C)cc2[nH]c1=O | inactive |
| Cc1nn(-c2ccccc2)c(N)c1N=Nc1ccc2ccccc2c1 | inconclusive: 7.94 µM [activator, partial curve, poor fit] |
| O=C(NC(=S)NC1CCCC1)c1ccccc1 | inconclusive: 8.91 µM [activator, partial curve, poor fit] |
| CC1CN(C(=O)CN2C(=O)c3ccccc3S2(=O)=O)CC(C)O1 (centres undefined) | inconclusive: 28.2 µM [activator, single point] |
| COCCC1CCCCN1C(=O)c1cc(COc2cccc(C(C)=O)c2)on1 (centres undefined) | inconclusive: 20 µM [activator, partial curve, poor fit] |
| Cn1cccc1/C=C1\CCc2ccccc2C1=O | inconclusive: 0.631 µM [activator, full curve, poor fit] |
| NC(=O)C1CC(=O)N(c2ccc(OCC(=O)Nc3ccccc3F)cc2)C1 (centres undefined) | inconclusive: 11.2 µM [activator, partial curve, poor fit] |
| Cc1ccc(Nc2ncnc3nc[nH]c23)cc1 | active: 11.2 µM |
| Cc1cccc(NC(=O)c2cccs2)n1 | inconclusive: 11.2 µM [activator, partial curve, poor fit] |
| CC(C)(C)c1csc(NC2=NS(=O)(=O)c3ccccc32)n1 | inconclusive: 1.78 µM [activator, full curve, poor fit] |
| CCOC(=O)N1CCN(C(=O)CCSc2ccccc2)CC1 | inconclusive: 6.31 µM [activator, partial curve, poor fit] |
| O=C(CSc1ccccc1F)Nc1ccc(N2CCOCC2)cc1 | active: 5.62 µM |
| O=C(NCCCN1CCOCC1)c1sc2cc(F)ccc2c1Cl | inconclusive: 15.8 µM [activator, partial curve, poor fit] |
| O=C(NNc1ccnc2cc(Cl)ccc12)C1CCCCC1 | inactive |
| COc1ccccc1Nc1nc(N)nc(CSC(=S)N2CCOCC2)n1 | inconclusive: 11.2 µM [activator, partial curve, poor fit] |
| Cc1ccc(NC(=O)C(=O)c2ccc(C)cc2)cc1 | inconclusive: 15.8 µM [activator, partial curve, poor fit] |
| CCOC(=O)c1sc(=N)n(-c2ccc(OC)cc2)c1C | inconclusive: 12.6 µM [activator, partial curve, poor fit] |
| CCc1ccccc1N(CC(=O)N1CCc2ccccc2C1)S(C)(=O)=O | inactive |
| CN1CCN(c2ccc(NC(=O)Cc3ccccc3)cc2)CC1 | inconclusive: 12.6 µM [activator, partial curve, poor fit] |
